{"source": "paper PMC12136788", "binders": {"B1": {"name": "chr2:128036804:128036805:-_ENSG00000163161_ENST00000285398|hu_hu|motif|central (ssRNA)", "RNA": "GGGAGUUCUACAGUCCGACGAUCGACAAUAAUCUUGUCAUUCCUCCUUUCAUGAAACUUGAUCAGAAACUGGCAAGCUCGGAAUUUGUUGGGGUUCAUGGUGUACAGCAAGAUUCGUUUCUUGGUUUUGAUUGCCACAUAUUCCAACAGAGGAUUGAGCAUCA"}, "B2": {"name": "chr6:13622506:13622507:-_ENSG00000010017_ENST00000011619|hu_mus|motif|central (ssRNA)", "RNA": "GGGAGUUCUACAGUCCGACGAUCAGGAAGCAAUGUAAAGCGACAAAAACCUGUCCCCAGUACAUAAUUAAAAAAAAAUCGGAAUUUCAAAUCAGCAGAGCCGGUCUACUUCCAUGUUGACUGUUUGCCACAAUGUGAGUGUGACAACAGAGGAUUGAGCAUCA"}, "B3": {"name": "chr17:6074196:6074197:-_ENSMUSG00000015659_ENSMUST00000097432|mus_mus|FALSE|FALSE (ssRNA)", "RNA": "GGGAGUUCUACAGUCCGACGAUCAUCUUAUUAUAUUUCGGAUAUUUCUCCAGGGCGUGCGACUUUUUGAUCGGGGAGCAAAGGAUCCUAUCCUCCUGCAACAGAUGACACAGUAGGCAGCCAGGGACAUCCUGCCGGCGCAAUCAACAGAGGAUUGAGCAUCA"}, "B4": {"name": "54841758_54841878_4210_3pUTR_ENSMUSG00000058446_ENSMUST00000079869|mouse|control|control (ssRNA)", "RNA": "GGGAGUUCUACAGUCCGACGAUCAGUUUUAAGAGUUUCAUACUUCGCUCAUCUUUAGCUUCCUACUGGGGAACUCCCCUUAUUUCCCUUAAGUCAAUACAGAAAAAGCAGGUACUAUUUACAUCGAAUCCACAAUCCUUCUUACAACAGAGGAUUGAGCAUCA"}, "B5": {"name": "chr18:33956166:33956167:-_ENSMUSG00000024376_ENSMUST00000025234|mus_mus|FALSE|FALSE (ssRNA)", "RNA": "GGGAGUUCUACAGUCCGACGAUCCUUGGAUUUGGUUUUAGUUUGGGGUGAGGGAGAUUGUGGGAAAGGCCACAGUUCAACCUAAGGAGUUAAGGGUAGAGCUUGGCAAGCACUAUCACUGAGCAGUCUACCCCCCAACUGAACCAACAGAGGAUUGAGCAUCA"}, "B6": {"name": "27673724_27673844_8167_CDS_ENSMUSG00000022263_ENSMUST00000090247|mouse|control|control (ssRNA)", "RNA": "GGGAGUUCUACAGUCCGACGAUCGUUCUCCAUGAUAACUGCACUCGUAUGGCCCAAGACGAAGCCCGGAAUCCAGCCCUCGGCUGCGGGGCACUGGUCAGUGGCGGCUCGGAACACCAGAAACAUGUUCUGCUGGUUGCUGGCCAACAGAGGAUUGAGCAUCA"}, "B7": {"name": "chr2:202488911:202488912:-_ENSG00000155755_ENST00000286196|hu_mus|hu_hu_hu_mus_False|38_108 (ssRNA)", "RNA": "GGGAGUUCUACAGUCCGACGAUCAUUUAACAUUUUUUCAUAAUCUCCAGUAGCAUUUCAGCAUUAUGUAACAAAAGCUCAAUUGUAAAUACAUGUAUAUACAUCUUAUACACUUAAAAACACGAGUGGGGAGCGCAGGCGCCACAACAGAGGAUUGAGCAUCA"}, "B8": {"name": "chr3:176740097:176740098:-_ENSG00000177565_ENST00000430069|hu_mus|hu_hu_hu_mus_True|48_48 (ssRNA)", "RNA": "GGGAGUUCUACAGUCCGACGAUCUGUUUUGUAUACCACAAAAGGAGGCACUUUCAGUAUCUGCAAAAGGUGUUUAGUCCUAAAACAUACUUACCUAGAGGAUAACUCAGGAAAACAAUCUGUUACACUCUAAGACCUACUCCACAACAGAGGAUUGAGCAUCA"}, "B9": {"name": "chr11:4127340:4127341:+_ENSG00000167325_ENST00000300738|hu_mus|hu_hu_hu_mus_False|58_68 (ssRNA)", "RNA": "GGGAGUUCUACAGUCCGACGAUCGGCAUAGUCAGGGUGCUUCGUGGUCAAGGUCGCGGCUGUCUCAGCAGCCAAAGUAUCUAGUUCCACUGUGGUGACCCCACUAUAUAGGCCUUGGAUUACUUUCAUGGUGAUCUGAGCAGGCAACAGAGGAUUGAGCAUCA"}, "B10": {"name": "chr14:66974463:66974464:+_ENSMUSG00000022044_ENSMUST00000074523|mus_hu|mus_mus_mus_hu_False|18_38 (ssRNA)", "RNA": "GGGAGUUCUACAGUCCGACGAUCUUGUAGGACGACUUAUUCAGGGGAUCGGCCAGGAAGCAGGAGCAGAACAAGGACACCAGCGGGAGCUCCUUCAUCUUCUCCUUGUAGGCAGCAAGAGUCAUGUUUCUGGGAUCUGGUGGCCAACAGAGGAUUGAGCAUCA"}, "B11": {"name": "chr4:25749455:25749456:-_ENSG00000091490_ENST00000264868|hu_hu|hu_hu_hu_mus_False|1_38 (ssRNA)", "RNA": "GGGAGUUCUACAGUCCGACGAUCGCACUAUGACCUCUAGAAAAAUCCACAGGGGGAAAAAAUGUAAACCAAUGUACAAUGUUAUCGCCUUCCCUGUAUUUCCAGGCUUUGUCUCAAGGCUCCUUCUAGCUGCUGGACUGCUAGCAACAGAGGAUUGAGCAUCA"}, "B12": {"name": "chr6:15520614:15520615:+_ENSG00000008083_ENST00000341776|hu_hu|FALSE|FALSE (ssRNA)", "RNA": "GGGAGUUCUACAGUCCGACGAUCUUUUCUAAGUACAAAAAAAAGUUCAACAGUUUAAUGCUAAAACAAAAUUAGUUCUCUAAAACCAGAAGAAAAUCUUCUUUAGAGCUAGUGCAAAGACAGCUUGAAUCCUACAGCAAGUACCAACAGAGGAUUGAGCAUCA"}, "B13": {"name": "chr2:42509997:42509998:+_ENSG00000143924_ENST00000318522|hu_mus|hu_hu_hu_mus_True|58_58 (ssRNA)", "RNA": "GGGAGUUCUACAGUCCGACGAUCUCGCUGAGUCCUCUCCUCAUAAUUAAACAGGACUACCACUGAGGCGAUAAAAUAAACUAUUUUCCCUGUGGGAAGCAGGUAUACAUUCGCUCUACAGUCCUUUCCUCGAUAACCGUAUACCAACAGAGGAUUGAGCAUCA"}, "B14": {"name": "34922018_34922138_569_3pUTR_ENSG00000159140_ENST00000381679|human|control|control (ssRNA)", "RNA": "GGGAGUUCUACAGUCCGACGAUCUGUGUGGCUCUGAUACCUCCAUUGAUACUACAGGAGGUUCUAGCACAACUGCAGGGGAUUCAUUGGUCUCAGAUGGGCCAAAUGCUCUUGUAGGAAGCUCCAGCGCCACAGCUGAAGGUUCAACAGAGGAUUGAGCAUCA"}}, "note": "The list shows a part of the results.", "data": [{"target": "T1, UNK ZnF1-3 (human, UniProt Q9C0B0 31-174)", "T1 sequence": "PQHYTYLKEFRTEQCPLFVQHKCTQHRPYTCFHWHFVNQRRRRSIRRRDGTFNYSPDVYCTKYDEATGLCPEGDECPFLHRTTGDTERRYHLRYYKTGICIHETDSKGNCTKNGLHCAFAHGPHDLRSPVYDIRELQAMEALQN", "experiment": "nsRBNS (natural sequence RNA bind-n-seq); RBNS binding buffer (assumed for nsRBNS): 25 mM Tris pH 7.5, 150 mM KCl, 3 mM MgCl2, 0.01% Triton X-100, 500 ug/ml BSA, 20 U/ml SUPERase-In, 4 C; UNK is unkempt and MSI1 is Musashi-1; names of the RNAs are library labels; protein concentration not given here; high values mean tight binding", "units": {"binding signal": "enrichment R"}, "values": [{"binder": "B1", "binding signal": 0.621}, {"binder": "B2", "binding signal": 2.35}, {"binder": "B3", "binding signal": 1.61}, {"binder": "B4", "binding signal": 0.769}, {"binder": "B5", "binding signal": 1.04}, {"binder": "B6", "binding signal": 1.35}, {"binder": "B7", "binding signal": 0.773}, {"binder": "B8", "binding signal": 0.864}, {"binder": "B9", "binding signal": 0.957}, {"binder": "B10", "binding signal": 1.9}, {"binder": "B11", "binding signal": 1.23}, {"binder": "B12", "binding signal": 1.03}, {"binder": "B13", "binding signal": 1.75}, {"binder": "B14", "binding signal": 0.683}]}]}
